Results from patent US20250236654A1, “C-TYPE NATRIURETIC PEPTIDE ENGRAFTED ANTIBODIES” (Bayer Aktiengesellschaft, priority 2018, published 2025).

T1: human NPRA (hNPRA) (Homo sapiens, UniProt P16066)
T1 construct: expressed in transfected cells
T1 sequence (P16066 33-1061): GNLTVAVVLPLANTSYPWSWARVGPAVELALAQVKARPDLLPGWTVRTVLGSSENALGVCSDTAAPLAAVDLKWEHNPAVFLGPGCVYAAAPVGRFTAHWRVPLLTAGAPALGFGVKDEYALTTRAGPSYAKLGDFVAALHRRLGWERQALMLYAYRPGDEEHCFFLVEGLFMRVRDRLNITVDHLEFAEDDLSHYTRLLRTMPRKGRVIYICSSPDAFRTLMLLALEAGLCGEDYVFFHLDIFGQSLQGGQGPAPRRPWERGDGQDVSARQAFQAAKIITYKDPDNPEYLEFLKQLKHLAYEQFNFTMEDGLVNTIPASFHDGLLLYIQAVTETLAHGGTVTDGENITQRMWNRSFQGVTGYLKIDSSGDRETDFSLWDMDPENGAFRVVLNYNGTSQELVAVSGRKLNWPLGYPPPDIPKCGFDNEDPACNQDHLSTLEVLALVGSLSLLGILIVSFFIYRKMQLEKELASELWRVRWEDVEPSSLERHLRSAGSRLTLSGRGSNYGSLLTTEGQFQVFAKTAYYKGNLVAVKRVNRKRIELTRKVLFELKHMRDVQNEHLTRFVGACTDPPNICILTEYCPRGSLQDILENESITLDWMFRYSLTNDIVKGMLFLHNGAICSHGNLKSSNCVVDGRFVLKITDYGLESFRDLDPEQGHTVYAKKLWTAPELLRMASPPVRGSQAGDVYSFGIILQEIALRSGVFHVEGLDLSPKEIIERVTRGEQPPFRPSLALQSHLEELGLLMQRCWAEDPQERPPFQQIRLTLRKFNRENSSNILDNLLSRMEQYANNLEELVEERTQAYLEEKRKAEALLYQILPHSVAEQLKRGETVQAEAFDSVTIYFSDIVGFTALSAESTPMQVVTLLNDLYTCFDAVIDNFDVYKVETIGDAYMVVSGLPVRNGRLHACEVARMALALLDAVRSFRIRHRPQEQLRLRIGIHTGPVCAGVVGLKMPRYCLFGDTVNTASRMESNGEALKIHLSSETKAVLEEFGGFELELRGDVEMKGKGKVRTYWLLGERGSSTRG

B1: TPP-13061: ANP engrafted antibody construct, CDRH2 (antibody, listed as Homo sapiens)
heavy: EVQLLESGGGLVQPGGSLRLSCAASGFTFSSYAMSWVRQAPGKGLEWVSAISVVVTSHQAPGEGGSGGSLRRSSCFGGRMDRIGAQSGLGCNSFRYGGSTPLKSLASTYYADSVKGRFTISRDNSKNTLYLQMNSLRAEDTAVYYCAKLTGAEYFQHWGQGTLVTVSS[letters of human IgG1 constant region left out]
light: QSVLTQPPSVSGAPGQRVTISCTGSSSNIGAGYDVHWYQQLPGTAPKLLIYGNSNRPSGVPDRFSGSKSGTSASLAITGLQAEDEADYYCQSYDSSLSGVVFGGGTKLTVLGQPKAAPSVTLFPPSSEELQANKATLVCLISDFYPGAVTVAWKADSSPVKAGVETTTPSKQSNNKYAASSYLSLTPEQWKSHRSYSCQVTHEGSTVEKTVAPTECS
modifications: NP engrafted HC
B2: TPP-10765: ANP engrafted antibody construct, CDRH2 (antibody, listed as Homo sapiens)
heavy: EVQLLESGGGLVQPGGSLRLSCAASGFTFSSYAMSWVRQAPGKGLEWVSAISGPNPNKNPNPNPGSGGSLRRSSCFGGRMDRIGAQSGLGCNSFRYGSNPNENPNPNPGSTYYADSVKGRFTISRDNSKNTLYLQMNSLRAEDTAVYYCAKLTGAEYFQHWGQGTLVTVSS[letters of human IgG1 constant region left out]
light: B1 light
modifications: NP engrafted HC
B3: TPP-10845: ANP engrafted antibody construct, CDRH2 (antibody, listed as Homo sapiens)
heavy: EVQLLESGGGLVQPGGSLRLSCAASGFTFSSYAMSWVRQAPGKGLEWVSAISGSTYISNVNHKPDGGSGGSLRRSSCFGGRMDRIGAQSGLGCNSFRYGSNTKVDKKVEGGSTYYADSVKGRFTISRDNSKNTLYLQMNSLRAEDTAVYYCAKLTGAEYFQHWGQGTLVTVSS[letters of human IgG1 constant region left out]
light: B1 light
modifications: NP engrafted HC
B4: TPP-10282: ANP engrafted antibody construct, CDRH2 (antibody, listed as Homo sapiens)
heavy: EVQLLESGGGLVQPGGSLRLSCAASGFTFSSYAMSWVRQAPGKGLEWVSAISGSGSGSGSGSGSPDGGSGGSLRRSSCFGGRMDRIGAQSGLGCNSFRYGSYGSGSGSGSGSGSTYYADSVKGRFTISRDNSKNTLYLQMNSLRAEDTAVYYCAKLTGAEYFQHWGQGTLVTVSS[letters of human IgG1 constant region left out]
light: B1 light
modifications: NP engrafted HC
B5: TPP-10283: ANP engrafted antibody construct, CDRH2 (antibody, listed as Homo sapiens)
heavy: EVQLLESGGGLVQPGGSLRLSCAASGFTFSSYAMSWVRQAPGKGLEWVSAISGPNPNPNPNPNSPDGGSGGSLRRSSCFGGRMDRIGAQSGLGCNSFRYGSYNPNPNPNPNPGSTYYADSVKGRFTISRDNSKNTLYLQMNSLRAEDTAVYYCAKLTGAEYFQHWGQGTLVTVSS[letters of human IgG1 constant region left out]
light: B1 light
modifications: NP engrafted HC
B6: TPP-13230: ANP engrafted antibody construct, CDRH3 (antibody, listed as Homo sapiens)
heavy: [letters of about 100 residues left out]GITGTKKYQSSPDGGSGGSLRRSSCFGGRMDRIGAQSGLGCNSFRYGSYSYTYNYAEYFQHWGQGTLVTVSS[letters of human IgG1 constant region left out]
light: B1 light
modifications: NP engrafted HC
B7: TPP-18034: BNP (Hum28aa) engrafted human IgG1 antibody construct, CDRH3 (antibody, listed as Homo sapiens)
heavy: [letters of about 100 residues left out]GITGTKKYQSSPDGGSGGMVQGSGCFGRKMDRISSSSGLGCKVLRRGSYSYTYNYAEYFQHWGQGTLVTVSS[letters of human IgG1 constant region left out]
light: B1 light
modifications: NP engrafted HC
notes: BNP (Hum28aa) engrafted human IgG1 antibody construct, CDRH3

Target: T1, human NPRA (hNPRA)
Test: cGMP quantification assay (HTRF) on stable hNPRA-CHO k1 cells (rcs, ics, pcs samples)
Assay type: cell-based
Conditions: for activity (qualit. activity, excerpt of Table 7): ANP engrafted antibody constructs, summarized qualitative assessment from average rel. log EC50 vs reference TPP-5661 on hNPRA cells; for activity rcs: raw compound samples (rcs) on stable hNPRA-CHO k1 cells, reference TPP-5661 (#117) gives 36%, n.a. = not active
Procedure: All activities shown in Tables 7 and 8 were measured on cells with heterologous over expression of human NPRA (hNPRA) by use of a cGMP quantification assay conducted according to manufacturer's instructions (cisbio; 62GM2PEH). In brief, the assay quantifies cGMP in buffered solution or cell-culture supernatants based on the competition between cGMP produced by the cell as result of the NPRA stimulation through the (natriuretic peptide) sample and d2 labelled cGMP for binding to a Cryptate labelled antibody. Sample cGMP and d2 labeled cGMP compete for binding to a limited number of sites on Cryptate labeled anti-cGMP antibodies, and consequently, HTRF® specific fluorescent signal (i.e. energy transfer) is inversely proportional to the concentration of cGMP in the sample.
Dose-response curve data were analyzed with GraphPad Prism (version 7.00 for Windows, GraphPad Software, La Jolla California USA) and EC50 were fitted according to Y=Bottom+(Top-Bottom)/(1+10∧((Log EC50-X)*HillSlope)) applying constraints for bottom, top and slope (shared value for all data sets of the respective experiment).
The raw compound sample activity on stable hNPRA-CHO k1 cells was first assessed by comparison to the negative control TPP-5657 and to a positive sample, in particular TPP-5661. Controls and res were tested in quadruplets in two concentrations with a relative dilution factor of 5 aiming for a fluorescent signal (s) in the dynamic range of the assay. […] Values listed in Table 7, columns “activity res” and “stdev activity res”, represent the average of the results for the two concentrations and the respective standard deviation. Res signals less than half of the signal of the reference compound TPP-5661 (36%) were assessed as not active (n.a.).
The activity of several raw compound samples on stable hNPRA-CHO k1 cells was reassessed by comparison to reference sample TPP-5661 in 2.5-fold dilution series (8 concentrations) starting with a 5-fold dilution. The “log EC50” fit value as activity measure of the res was set in relation to the corresponding value of the reference res TPP-5661 by calculating the delta “log EC50” _compound −“log EC50” _TPP-5661; resulting values are listed in Table 7, column “rel. activity res”. […] All samples were applied in quadruplets.
The activity of isolated compound samples on stable hNPRA-CHO k1 cells was assessed by EC50 determination and comparison to reference sample TPP-5661. Samples were tested in 2.5-fold dilution series from 80 nM to 0.13 nM. The log EC50 fit value as activity measure of the ics was set in relation to the corresponding value of the reference ics TPP-5661 (−8.8) by calculating the delta log EC50_compound−log EC50_TPP-5661; resulting values are listed in Table 7, column “rel. log EC50 ics”. All samples were applied in quadruplets.
The activity of purified compound samples on stable hNPRA-CHO k1 cells was assessed in multiple experiments by EC50 determination and comparison to reference sample TPP-5661. Samples were tested in dilution series at least in quadruplets. […] The log EC50 fit value as activity measure of the pcs was set in relation to the corresponding value of the reference TPP-5661 in the respective experiment (in average −9.2, standard deviation 0.5) by calculating the delta log EC50_compound−log EC50_TPP-5661.

[1] = summarized qualitative assessment from average rel. log EC50 (hNPRA-CHO k1 and hNPRA-HEK293 data), n.e = not active, very low expression

Molecule	activity (qualit. activity, excerpt of Table 7)	qualit. activity [1]	activity rcs [%]	qualit. activity (summarized qualitative assessment of activity relative to reference TPP-5661)	qualit. activity on hNPRA (BNP engrafted antibody constructs, purified compound samples (pcs), dilution series in quadruplets, stable hNPRA-CHO k1 cells)
B1	++ (relative log EC50<0.7 were assessed as very active)	++ (relative log EC50<0.7 were assessed as very active)			
B2	++ (relative log EC50<0.7 were assessed as very active)	++ (relative log EC50<0.7 were assessed as very active)	72		
B3	++ (relative log EC50<0.7 were assessed as very active)	++ (relative log EC50<0.7 were assessed as very active)	67		
B4	++ (relative log EC50<0.7 were assessed as very active)	++ (relative log EC50<0.7 were assessed as very active)	30		
B5	+++ (highest activities were observed at relative log EC50 below −0.7)	+++ (highest activities were observed at relative log EC50 below −0.7)	83		
B6				++ (relative log EC50<0.7 were assessed as very active)	
B7					++ (relative log EC50<0.7 were assessed as very active)
